In all, about 270,000 compounds went through this assay and about 620 (0.23%) were called active. This list was built around the results that the source calls inconclusive (neither active nor inactive); the mix of calls is not that of the screen. Calls come from the whole dose curve; as a rule, active = well fitted inhibition curve with a large enough effect in the polarisation, with a control signal flat (not every such curve was filed as active); inconclusive = small, poorly fitted or top-dose-only effect, or effect the other way, or a change in a side signal; inactive = no such curve, though single readings can be large or run the other way; the % refers to the polarisation. Where the call is inconclusive, the potency comes from a doubtful curve fit. “Side channel” marks fits to a control or component signal instead of the main read-out.
target: Menin (Homo sapiens) (UniProt O00255); assay: qHTS Assay for Inhibitors Targeting the Menin-MLL Interaction in MLL Related Leukemias: Competition With Texas Red Labeled MLL-derived Mutant Peptide; details: fluorescence polarization; series mostly up to 61.6 µM
Chain of UniProt O00255 (O00255 whole entry, looked up): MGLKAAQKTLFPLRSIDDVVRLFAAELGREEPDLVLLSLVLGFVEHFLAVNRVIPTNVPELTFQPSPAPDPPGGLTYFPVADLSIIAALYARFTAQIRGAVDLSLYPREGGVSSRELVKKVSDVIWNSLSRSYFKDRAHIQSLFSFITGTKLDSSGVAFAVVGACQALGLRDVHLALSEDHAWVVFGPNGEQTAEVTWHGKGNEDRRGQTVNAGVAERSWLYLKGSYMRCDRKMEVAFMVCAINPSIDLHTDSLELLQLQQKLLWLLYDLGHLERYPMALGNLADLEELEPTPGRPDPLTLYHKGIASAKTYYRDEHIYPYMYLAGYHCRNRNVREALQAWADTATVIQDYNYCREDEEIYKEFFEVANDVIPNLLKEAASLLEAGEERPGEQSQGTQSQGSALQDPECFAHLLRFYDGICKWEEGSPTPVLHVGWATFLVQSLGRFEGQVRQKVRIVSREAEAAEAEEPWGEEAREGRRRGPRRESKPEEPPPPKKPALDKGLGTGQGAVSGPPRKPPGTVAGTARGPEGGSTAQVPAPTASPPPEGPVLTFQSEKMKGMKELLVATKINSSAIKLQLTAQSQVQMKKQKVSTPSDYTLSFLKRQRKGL
Potency is the fitted concentration of half-maximal effect; tags give direction and shape of the fitted curve or compound fluorescence and quenching.

Potency, inactive:
OCC[C@@H]1C[C@H](O)[C@@H](O)[C@@]2(OCc3ccccc32)O1
Cc1ccc(-c2nnc(/C=C/c3ccccc3)o2)cc1
O=C(N/N=C(\Cc1ncc[nH]1)c1ccccc1)c1ccccc1
CC(=O)O[C@@H]1CC2C(C)(C)C(=O)C=C[C@]2(C)C2CC[C@]3(C)C(=CC[C@H]3C3CO[C@@H](C(C)(C)O)[C@H](O)C3)[C@@]21C (some centres undefined)

Potency, active:
O=C(Nc1nc(-c2ccc(S(=O)(=O)N3CCCCCC3)cc2)cs1)c1cccs1 22.4 µM

Potency, inconclusive:
COc1ccc(N2CCN(C(=O)c3ccc4c(c3)NC(=O)C(CSCc3c(F)cccc3Cl)N4)CC2)cc1 (centres undefined) 28.2 µM [quencher, side channel, single point]
CCn1c(=O)c(C(=O)NNC(=O)c2ccccc2)c(O)c2ccccc21 25.1 µM [quencher, side channel, single point]
COc1ccc(C2(c3ccc(OC)cc3)NC(=O)N(CC(=O)Nc3ccc(OC)c(OC)c3)C2=O)cc1 25.1 µM [quencher, side channel, partial curve]
CC(C)c1ccc(NC(=O)C2C3C=CC4(O3)C2C(=O)N(CCCN2CCCCC2)C4C(=O)NC2CCCCC2)cc1 (centres undefined) 3.98 µM [inhibitor, single point]
CCOC(=O)/C(=N\Nc1ccccc1[N+](=O)[O-])c1csc(N)n1 17.8 µM [quencher, side channel, partial curve]
CCCc1nnc(NC(=O)CCC(=O)N2CCN(Cc3ccc(C)cc3C)CC2)s1 2.24 µM [inhibitor, full curve, poor fit]
CC(C)c1ccc(C2C3=C(CC(C)(C)CC3=O)NC3=C2C(=O)c2ccccc23)cc1 (centres undefined) 35.5 µM [quencher, side channel, partial curve]
Cc1ccc(S(=O)(=O)N(CC(=O)NCCC2=CCCCC2)Cc2ccccc2F)cc1 5.62 µM [inhibitor, single point]
Cc1ccc([N+](=O)[O-])cc1S(=O)(=O)NCC1COc2ccccc2O1 (centres undefined) 31.6 µM [quencher, side channel, single point]
O=C(Nc1cccs1)Nc1cccnc1Cl 10 µM [quencher, side channel, partial curve]
CCn1c(=O)cc(SCC(=O)NCCCN2CCN(c3ccccc3F)CC2)c2ccccc21 7.08 µM [inhibitor, single point]
COc1ccccc1Nc1nc(-c2ccc3c(c2)NC(=O)CO3)cs1 15.8 µM [quencher, side channel, partial curve]
COc1ccc(/C=C2/SC(=S)NC2=O)cc1OCc1ccccc1 10 µM [quencher, side channel, partial curve]
O=C(O)C1CCC(CN(Cc2cccc(Br)c2)C(=S)Nc2ccccc2F)CC1 (centres undefined) 22.4 µM [quencher, side channel, single point]
CC(C)Sc1nc(C(F)(F)F)cc(=O)n1-c1ccccc1 3.98 µM [fluorescent, side channel, full curve, poor fit]
O=C(NC(c1ccccc1)c1c(O)ccc2ccccc12)c1ccccc1Cl (centres undefined) 39.8 µM [inhibitor, single point]
COc1ccc2c(c1OC)C(=O)N(c1ccc(OCc3ccccc3)cc1)C2=O 25.1 µM [fluorescent, side channel, partial curve]
COc1ccc(OC)c(Nc2nc(-c3sc(N)nc3C)cs2)c1 22.4 µM [quencher, side channel, single point]
O=C(Nc1cccc(NC(=O)c2cccc(F)c2)n1)c1cccc(F)c1 28.2 µM [quencher, side channel, single point]
Cc1oc(-c2ccccc2)cc1C(=O)Nc1cccc(/C=C/C(=O)O)c1 11.2 µM [quencher, side channel, partial curve]
S=C(NCCSCc1ccc(Cl)cc1Cl)Nc1ccccc1 20 µM [quencher, side channel, partial curve]
C=CCn1c(=S)[nH]c2cc(C(=O)Nc3ccc(F)cc3)ccc2c1=O 39.8 µM [fluorescent, side channel, single point]
COC(=O)C1=C(C(=O)OC)[C@@H]2N(Cc3ccccc3)c3ccccc3[C@@]23C[C@@H](C(=O)OC)N(S(=O)(=O)c2ccc(Br)cc2)C3=N1 5.01 µM [fluorescent, side channel, partial curve]
O=C(O)c1cc(=O)c2ccccc2[nH]1 1.26 µM [inhibitor, full curve, poor fit]
Cc1cccc(NC(=O)CC2C(=O)NCCN2C(=S)Nc2ccccc2)c1 (centres undefined) 22.4 µM [quencher, side channel, partial curve]
CC(=O)c1ccc(NC(=O)CNC2CCCCC2)cc1 39.8 µM [inhibitor, single point]
COc1ccc(-c2nc(-c3cccc(C)c3)nc(Cl)c2C#N)cc1 3.98 µM [quencher, side channel, full curve]
O=C(O)CN1C(=O)/C(=C\c2cccc(OCc3ccc(F)cc3)c2)SC1=S 15.8 µM [quencher, side channel, single point]
COC(=O)/C=C1\SC(=Nc2ccc(Cl)c(Cl)c2)NC1=O 35.5 µM [quencher, side channel, single point]
CCCOc1ccc(NC(=O)CC2Nc3ccccc3NC2=O)cc1 (centres undefined) 31.6 µM [quencher, side channel, single point]
O=c1cc(-c2ccc(O)c(O)c2)oc2cccc(O)c12 12.6 µM [quencher, side channel, partial curve]
O=C(Nc1nnc(C2=COCCO2)o1)c1ccc(Cc2ccccc2)cc1 22.4 µM [quencher, side channel, single point]
O=C(O)CC/C(=C\c1ccc(Cl)c([N+](=O)[O-])c1)c1nc2ccccc2s1 39.8 µM [quencher, side channel, single point]
CC1(C)CC(=O)c2sc(NS(=O)(=O)c3ccc(Cl)cc3)nc2C1 39.8 µM [quencher, side channel, partial curve]
Cc1ccccc1NC(=O)Nc1nnc(Cc2ccc([N+](=O)[O-])cc2)s1 15.8 µM [quencher, side channel, single point]
O=C(Nc1ccc(N2CCCC2)c(Cl)c1)c1cccs1 15.8 µM [quencher, side channel, partial curve]
O=C(N/N=C/c1ccc([N+](=O)[O-])s1)c1ccccc1Br 39.8 µM [quencher, side channel, single point]
COc1cc(C(=O)OCC(=O)Nc2cc(C)on2)c([N+](=O)[O-])cc1OC 39.8 µM [fluorescent, side channel, single point]
Cc1ccccc1C(=O)N1N=C(c2ccc(NS(C)(=O)=O)cc2)CC1c1cccs1 (centres undefined) 20 µM [quencher, side channel, partial curve]
COc1ccc(C(=O)COC(=O)c2cc(S(=O)(=O)NCc3ccccc3)ccc2O)cc1 25.1 µM [quencher, side channel, single point]
Nc1ccc(S(=O)(=O)c2ccc(Cl)cc2)cc1 39.8 µM [quencher, side channel, single point]
CCn1ccnc1CN(C)Cc1nc(Cc2cccc(C(F)(F)F)c2)no1 31.6 µM [fluorescent, side channel, partial curve]
CCOC(=O)CSc1nc2sc3c(c2c(=O)n1-c1ccccc1)CCN(C(C)C)C3 22.4 µM [fluorescent, side channel, partial curve]
CC(Sc1nc(O)c(-c2ccccc2)c(=O)[nH]1)C(=O)Nc1ccc(Cl)cc1 (centres undefined) 31.6 µM [quencher, side channel, single point]
CCOc1ccc(OC(=O)NC(c2ccccc2)C(Cl)(Cl)Cl)cc1 (centres undefined) 39.8 µM [inhibitor, single point]
c1ccc(-c2c(-c3ccccc3)n(Cc3ccco3)c3ncnc(NCCCn4ccnc4)c23)cc1 0.891 µM [fluorescent, side channel, full curve]
COc1cccc(Nc2ncc3ncc(=O)n(Cc4cccs4)c3n2)c1 6.31 µM [quencher, side channel, partial curve]
Cc1cc(C)n(-c2nc(SCCN(C)C)c3c4c(sc3n2)COC(C)(C)C4)n1 11.2 µM [inhibitor, partial curve]
COc1cccc(OCC(O)CN2CCN(c3ccc(F)cc3)CC2)c1 (centres undefined) 25.1 µM [inhibitor, partial curve, poor fit]

Source: PubChem BioAssay AID1768 (National Center for Advancing Translational Sciences (NCATS), 2009)
